According to the antibiotic and cytotoxicity screens of Wong et al. (2023):
The other results are listed elsewhere or left out.

Test system: S. aureus RN4220
Assay: growth inhibition call (relative growth <= 0.2)
Conditions: 50 µM

Growth inhibition call, active:
C[C@@H]1CN([C@H](C)CO)C(=O)c2cccc(NC(=O)C3CCCCC3)c2O[C@@H]1CN(C)C(=O)Nc1ccc(C(F)(F)F)cc1

Growth inhibition call, inactive:
O=C(CCCCC(=O)N/N=C/[C@H](O)[C@@H](O)[C@H](O)[C@H](O)CO[C@H]1O[C@H](CO)[C@H](O)[C@H](O)[C@H]1O)NO
c1ccc([C@@H]2CNCCN2)cc1
CC(=O)N(C)C[C@@H]1Oc2ncc(C#CC(C)(C)O)cc2C(=O)N([C@H](C)CO)C[C@@H]1C
O=C(O)Cc1cc(I)c(Oc2ccc(O)c(I)c2)c(I)c1
C[C@@H]1CCCCO[C@@H](CN(C)Cc2ccc(C(=O)Nc3ccccc3N)cc2)[C@@H](C)CN([C@H](C)CO)C(=O)c2cc(NC(=O)NC3CCCCC3)ccc2O1
CCOc1ccc(C(=O)Nc2ccc(N3CCN(C(=O)c4cccs4)CC3)c(Cl)c2)cc1Br
C[C@@H]1CN([C@@H](C)CO)C(=O)Cc2cc(NS(=O)(=O)c3ccccc3)ccc2O[C@H]1CN(C)S(C)(=O)=O
COCC(=O)N(C)C[C@@H]1Oc2cc(C#CCN(C)C)ccc2S(=O)(=O)N([C@@H](C)CO)C[C@@H]1C
C[C@H](CO)N1C[C@H](C)[C@H](CN(C)C(=O)c2ccncc2)Oc2cc(-c3cccc(C#N)c3)ccc2S1(=O)=O
O=C(C[C@@H]1CC[C@@H]2[C@H](COC[C@@H](O)CN2Cc2cccc(C(F)(F)F)c2)O1)NCCc1ccncc1
C=CCN(CCCC)C(=O)[C@H]1N(C(C)(C)CO)C(=O)[C@H]2[C@H](C(=O)O)[C@@H]3C=C[C@@]21O3
O=C(CCCCCCC(=O)Nc1ccc([C@H]2O[C@@H](COc3ccccc3)C[C@H](c3ccccc3)O2)cc1)NO
CC(=O)O[C@@H]1[C@H]2OC(C)(C)O[C@H]2O[C@@H]1[C@@H](O)CO
C[C@H](CO)N1C[C@H](C)[C@H](CN(C)C(=O)NC2CCCCC2)Oc2ccc(NC(=O)Nc3ccc(C(F)(F)F)cc3)cc2C1=O
O=C(O)[C@@H]1CCCCO1
COc1ccc(S(=O)(=O)Nc2ccc3c(c2)CC(=O)N([C@@H](C)CO)C[C@H](C)[C@H](CN(C)Cc2ccc(Cl)c(Cl)c2)O3)cc1
COc1ccc2c(c1)OCc1c-2oc2cc(OC)ccc12
C[C@@H]1CN([C@H](C)CO)C(=O)Cc2cc(NS(=O)(=O)c3cccs3)ccc2O[C@H]1CN(C)Cc1ccc(Oc2ccccc2)cc1
C[C@H]1CN([C@@H](C)CO)C(=O)c2cc(NS(=O)(=O)c3cn(C)cn3)ccc2O[C@H]1CN(C)S(=O)(=O)c1cn(C)cn1
C[C@H](CO)N1C[C@H](C)[C@H](CN(C)C(=O)Nc2ccc(C(F)(F)F)cc2)OCCCC[C@H](C)Oc2ccc(NS(C)(=O)=O)cc2C1=O
C[C@@H]1CCCCO[C@H](CN(C)C(=O)Nc2ccc(C(F)(F)F)cc2)[C@H](C)CN([C@@H](C)CO)C(=O)c2cc(NC(=O)Nc3ccc(F)cc3)ccc2O1
COc1cc(NC(=O)Cn2cnc3c2c(=O)n(C)c(=O)n3C)cc(OC)c1OC
CCOC(=O)N[C@@H]1CC(=O)N(C2CC2)C1
COc1ccc(CN(C)C[C@@H]2Oc3c(NS(C)(=O)=O)cccc3C(=O)N([C@@H](C)CO)C[C@H]2C)cc1
CN(Cc1ccccc1)C[C@H]1C[C@@H](c2ccc(CO)cc2)O[C@H](c2ccc(NC(=O)CCCCCCC(=O)NO)cc2)O1
C[C@@H]1CCCCO[C@@H](CN(C)C(=O)Nc2ccc3c(c2)OCO3)[C@@H](C)CN([C@@H](C)CO)C(=O)c2cc(NS(=O)(=O)c3ccccc3)ccc2O1
C[C@H]1CN([C@@H](C)CO)C(=O)c2cccc(NC(=O)C3CC3)c2O[C@@H]1CN(C)S(=O)(=O)c1cn(C)cn1
C[C@H](CO)N1C[C@H](C)[C@H](CN(C)C(=O)c2ccccc2)OCCCC[C@H](C)Oc2ccc(NC(=O)Nc3ccc4c(c3)OCO4)cc2C1=O
C[C@H]1CN([C@@H](C)CO)S(=O)(=O)c2ccc(C3=CCCCC3)cc2O[C@H]1CN(C)Cc1cncnc1
